The full ranking holds about 33,000 sequences; the median of “E-score (-0.5 to 0.5)” is about -0.012, and the highest 2% start at about 0.27. The list shows a part of the results.
What follows are sequences tested against T1, Vhr1 (UniProt P40522) (assay: PBM E-score (8-mer binding enrichment) (E-score (-0.5 to 0.5)); higher = stronger / more preferred TF binding; most listed sequences are background and not binding sites). Conditions: protein concentration: 200 nM; construct: GST-full length.
T1 sequence: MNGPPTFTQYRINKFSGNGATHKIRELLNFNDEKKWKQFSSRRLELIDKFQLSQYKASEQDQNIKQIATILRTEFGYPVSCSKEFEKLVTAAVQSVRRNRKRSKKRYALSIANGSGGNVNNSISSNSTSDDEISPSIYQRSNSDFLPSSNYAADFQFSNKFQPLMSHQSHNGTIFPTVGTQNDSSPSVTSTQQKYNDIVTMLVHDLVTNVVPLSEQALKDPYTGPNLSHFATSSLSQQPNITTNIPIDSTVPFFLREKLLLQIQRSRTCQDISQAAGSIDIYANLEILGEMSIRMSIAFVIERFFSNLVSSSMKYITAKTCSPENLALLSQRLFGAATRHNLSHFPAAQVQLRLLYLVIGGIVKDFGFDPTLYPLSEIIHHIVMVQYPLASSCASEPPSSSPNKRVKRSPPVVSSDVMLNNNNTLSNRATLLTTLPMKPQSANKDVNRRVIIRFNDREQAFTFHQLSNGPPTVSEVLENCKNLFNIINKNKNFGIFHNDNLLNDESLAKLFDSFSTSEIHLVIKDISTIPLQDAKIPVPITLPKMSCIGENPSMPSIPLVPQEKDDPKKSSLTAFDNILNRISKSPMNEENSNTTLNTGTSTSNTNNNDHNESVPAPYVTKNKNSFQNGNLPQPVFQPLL
Outline: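 Yeast transcription factors carrying a GST tag, as full-length proteins or DNA-binding domains, were produced by PURExpress in vitro transcription/translation. About 100-200 nM protein was applied to universal all-10-mer Agilent arrays, double-stranded by primer extension on fresh or once-stripped slides. Bound protein was detected with fluorescent anti-GST, and scans were normalised with masliner. The Universal PBM Analysis Suite gave each ungapped eight-base word, pooled with its reverse complement, an E-score, a modified Wilcoxon-Mann-Whitney statistic.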

Row | Sequence | PBM E-score
1 | AACGCTCT | -0.167
2 | AGGAGGTC | -0.125
3 | CAGCCCAG | 0.0143
4 | CTAAGCAC | 0.0457
5 | GACTAGGC | 0.0856
6 | CCCAATGA | 0.112
7 | AAGGTGCT | -0.198
8 | TCGAAAGA | -0.109
9 | GGATCTAC | -0.068
10 | ATACAAGA | 0.107
11 | AACTGACC | -0.103
12 | CGATGTAA | 0.0662
13 | CTCCATCC | -0.162
14 | GGTATGGA | -0.0842
15 | AACAACCA | 0.137
16 | ACGCGTAG | -0.0237
17 | CATCACGG | -0.053
18 | GCAGCCGC | -0.0178
19 | CTAAATTA | 0.0589
20 | AGTAGCGC | 0.0112
21 | GCTTGGAC | -0.218
22 | GGTCGCCA | -0.0181

Row | Sequence | PBM E-score
23 | AAAACTTG | -0.0981
24 | CACGGGAC | 0.00745
25 | GCCCAAGC | -0.0541
26 | AATGCGAC | 0.201
27 | CTCCCTTA | -0.0992
28 | CCCATGTC | 0.0407
29 | CCATCCTA | 0.119
30 | CGGGCCAC | 0.0818
31 | TAGAATCA | 0.185
32 | ACTAGTGA | -0.0122
33 | ATTAACCC | 0.175
34 | CGGCGGTC | -0.0157
35 | CCTCACTC | 0.0373
36 | AGGCTAAC | -0.107
37 | GTGTTGTA | 0.0384
38 | CAACACCC | 0.106
39 | CTCGCCCC | 0.0459
40 | TAGTAAGA | -0.104
41 | ATAATAAG | 0.032
42 | CGCGGGAA | 0.105
43 | GTGAGTTA | 0.137
44 | AGTGATGA | 0.207

Row | Sequence | PBM E-score
45 | CTCGCAAG | 0.149
46 | AGTATTAA | 0.164
47 | CAACTGAA | 0.0597
48 | ATGGGGCA | -0.103
49 | GGAGATCA | 0.106
50 | ACCCAGGC | 0.302
51 | CCGCCGAA | 0.076
52 | AACAAGTC | 0.0369
53 | AAGACATA | 0.0526
54 | CTCGGGGA | -0.00611
55 | CTCCAGAA | -0.14
56 | ACATCTAT | 0.0759
57 | GGACATAA | -0.126
58 | AGCACCCC | -0.078
59 | AATTGGTG | 0.157
60 | GCGTCCAC | -0.212
61 | ACGGCGTC | -0.0609
62 | CGTATAAC | 0.0607
63 | GCTTAAAA | -0.0463
64 | CATTTCCA | 0.0774
65 | ATACTGCC | 0.0148
66 | AATGAGCG | -0.0139

Row | Sequence | PBM E-score
67 | CGATATCC | 0.0969
68 | ATAGCTTG | -0.146
69 | ACGCTGAT | 0.155
70 | AACCGGCT | 0.07
71 | GTAAAATA | -0.174
72 | CAGTGTCC | 0.0431
73 | CCACCTTA | -0.0749
74 | GTCAGGAA | 0.0818
75 | AACGACCA | -0.0478
76 | GGGGGCTA | -0.322
77 | AGAACTGG | 0.00338
78 | GGAGGACA | -0.155
79 | ATGCTTCA | -0.231
80 | AATGGCAT | 0.146
81 | AATACTGA | -0.021
82 | AAGCGACC | 0.0732
83 | TACAGGGA | -0.0848
84 | CGTCGGAC | -0.0628
85 | TAAGACCA | 0.0161
86 | ACATACGG | -0.123
